Test results reported in the supplement of paper PMC8728848.
The list shows a part of the results.

Tests used:
Assay in all cases: glycan array binding signal (z-score within array); higher = stronger binding
Details in all cases: glycan notation: IUPAC condensed, linker removed
[1] = target: Fuc(a1-2)Gal
Summary of the method: (§1)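 The binding signal is a Z-score computed within each array and averaged over linkers. Arrays of the same protein sequence at different concentrations or buffers were also averaged together. Data originate from 3228 arrays in the Consortium for Functional Glycomics database, kept only where the protein sequence was available.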

[2] = target: Fuc(a1-2)Gal(b1-3)GalNAc
Summary of the method: as §1

[3] = target: Fuc(a1-2)Gal(b1-3)GalNAc(b1-3)Gal
Summary of the method: as §1

[4] = target: Fuc(a1-2)Gal(b1-3)GalNAc(b1-3)Gal(a1-4)Gal(b1-4)Glc
Summary of the method: as §1

[5] = target: Fuc(a1-2)Gal(b1-3)GalNAc(b1-4)[Neu5Ac(a2-3)]Gal(b1-4)Glc
Summary of the method: as §1

[6] = target: Fuc(a1-2)Gal(b1-3)GlcNAc
Summary of the method: as §1

[7] = target: Fuc(a1-2)Gal(b1-3)GlcNAc(b1-3)Gal(b1-4)Glc
Summary of the method: as §1

[8] = target: Fuc(a1-2)Gal(b1-3)[Fuc(a1-4)]GlcNAc
Summary of the method: as §1

[9] = target: Fuc(a1-2)Gal(b1-4)Glc
Summary of the method: as §1

[10] = target: Fuc(a1-2)Gal(b1-4)Glc6S
Summary of the method: as §1

[11] = target: Fuc(a1-2)Gal(b1-4)GlcNAc
Summary of the method: as §1

[12] = target: Fuc(a1-2)Gal(b1-4)GlcNAc(b1-3)Gal(b1-4)GlcNAc
Summary of the method: as §1

[13] = target: Fuc(a1-2)Gal(b1-4)GlcNAc(b1-3)Gal(b1-4)GlcNAc(b1-3)Gal(b1-4)GlcNAc
Summary of the method: as §1

[14] = target: Fuc(a1-2)Gal(b1-4)GlcNAc6S
Summary of the method: as §1

[15] = target: Fuc(a1-2)Gal(b1-4)[Fuc(a1-3)]GlcNAc
Summary of the method: as §1

[16] = target: Fuc(a1-2)Gal(b1-4)[Fuc(a1-3)]GlcNAc(b1-3)Gal(b1-4)[Fuc(a1-3)]GlcNAc
Summary of the method: as §1

[17] = target: Fuc(a1-2)Gal(b1-4)[Fuc(a1-3)]GlcNAc(b1-3)Gal(b1-4)[Fuc(a1-3)]GlcNAc(b1-3)Gal(b1-4)[Fuc(a1-3)]GlcNAc
Summary of the method: as §1

[18] = target: Fuc(a1-2)Gal6S(b1-4)Glc
Summary of the method: as §1

[19] = target: Fuc(a1-2)Gal6S(b1-4)Glc6S
Summary of the method: as §1

[20] = target: Fuc(a1-2)Gal6S(b1-4)GlcNAc
Summary of the method: as §1

[21] = target: Fuc(a1-2)[Gal(a1-3)]Gal
Summary of the method: as §1

[22] = target: Fuc(a1-2)[Gal(a1-3)]Gal(b1-3)GlcNAc
Summary of the method: as §1

[23] = target: Fuc(a1-2)[Gal(a1-3)]Gal(b1-4)Glc
Summary of the method: as §1

[24] = target: Fuc(a1-2)[Gal(a1-3)]Gal(b1-4)GlcNAc
Summary of the method: as §1

[25] = target: Fuc(a1-2)[Gal(a1-3)]Gal(b1-4)[Fuc(a1-3)]GlcNAc
Summary of the method: as §1

[26] = target: Fuc(a1-2)[Gal(a1-4)]Gal(b1-4)GlcNAc
Summary of the method: as §1

[27] = target: Fuc(a1-2)[GalNAc(a1-3)]Gal
Summary of the method: as §1

[28] = target: Fuc(a1-2)[GalNAc(a1-3)]Gal(b1-3)GlcNAc
Summary of the method: as §1

[29] = target: Fuc(a1-2)[GalNAc(a1-3)]Gal(b1-4)Glc
Summary of the method: as §1

[30] = target: Fuc(a1-2)[GalNAc(a1-3)]Gal(b1-4)GlcNAc
Summary of the method: as §1

[31] = target: Fuc(a1-2)[GalNAc(a1-3)]Gal(b1-4)[Fuc(a1-3)]GlcNAc
Summary of the method: as §1

[32] = target: Fuc(a1-2)[GalNAc(a1-4)]Gal(b1-4)GlcNAc
Summary of the method: as §1

[33] = target: Fuc(a1-2)[GalNAc(b1-3)]Gal
Summary of the method: as §1

[34] = target: Fuc(a1-3)GlcNAc
Summary of the method: as §1

[35] = target: Fuc(a1-3)[Gal(b1-4)]Glc6S
Summary of the method: as §1

[36] = target: Fuc(a1-3)[Gal(b1-4)]GlcNAc
Summary of the method: as §1

[37] = target: Fuc(a1-3)[Gal(b1-4)]GlcNAc(b1-2)Man(a1-3)[Fuc(a1-3)[Gal(b1-4)]GlcNAc(b1-2)Man(a1-6)]Man(b1-4)GlcNAc(b1-4)GlcNAc
Summary of the method: as §1

[38] = target: Fuc(a1-3)[Gal(b1-4)]GlcNAc(b1-2)Man(a1-6)[Gal(b1-4)GlcNAc(b1-2)Man(a1-3)]Man(b1-4)GlcNAc(b1-4)GlcNAc
Summary of the method: as §1

[39] = target: Fuc(a1-3)[Gal(b1-4)]GlcNAc(b1-3)Gal(b1-3)[Fuc(a1-4)]GlcNAc
Summary of the method: as §1

[40] = target: Fuc(a1-3)[Gal(b1-4)]GlcNAc(b1-4)Gal(b1-4)[Fuc(a1-3)]GlcNAc
Summary of the method: as §1

[41] = target: Fuc(a1-3)[Gal(b1-4)]GlcNAc(b1-4)Gal(b1-4)[Fuc(a1-3)]GlcNAc(b1-4)Gal(b1-4)[Fuc(a1-3)]GlcNAc
Summary of the method: as §1

[42] = target: Fuc(a1-3)[Gal(b1-4)]GlcNAc6S
Summary of the method: as §1

[43] = target: Fuc(a1-3)[Gal3S(b1-4)]Glc6S
Summary of the method: as §1

[44] = target: Fuc(a1-3)[Gal3S(b1-4)]GlcNAc
Summary of the method: as §1

[45] = target: Fuc(a1-3)[Gal3S(b1-4)]GlcNAc6S
Summary of the method: as §1

[46] = target: Fuc(a1-3)[GalNAc(b1-4)]GlcNAc
Summary of the method: as §1

[47] = target: Fuc(a1-4)GlcNAc
Summary of the method: as §1

[48] = target: Fuc(b1-3)GlcNAc
Summary of the method: as §1

[49] = target: Gal(a1-2)Gal
Summary of the method: as §1

[50] = target: Gal(a1-3)Gal
Summary of the method: as §1

[51] = target: Gal(a1-3)Gal(b1-3)GlcNAc
Summary of the method: as §1

[52] = target: Gal(a1-3)Gal(b1-4)Glc
Summary of the method: as §1

[53] = target: Gal(a1-3)Gal(b1-4)GlcNAc
Summary of the method: as §1

[54] = target: Gal(a1-3)Gal(b1-4)[Fuc(a1-3)]GlcNAc
Summary of the method: as §1

[55] = target: Gal(a1-3)GalNAc
Summary of the method: as §1

[56] = target: Gal(a1-3)[Gal(a1-4)]Gal(b1-4)GlcNAc
Summary of the method: as §1

[57] = target: Gal(a1-4)Gal(b1-4)Glc
Summary of the method: as §1

[58] = target: Gal(a1-4)Gal(b1-4)GlcNAc
Summary of the method: as §1

[59] = target: Gal(a1-4)GlcNAc
Summary of the method: as §1

[60] = target: Gal(a1-6)Glc
Summary of the method: as §1

B1: MIC1 (Toxoplasma gondii), O00834 (protein)
chain: MGQALFLTVLLPVLFGVGPEAYGEASHSHSPASGRYIQQMLDQRCQEIAAELCQSGLRKMCVPSSRIVARNAVGITHQNTLQWRCFDTASLLESNQENNGVNCVDDCGHTIPCPGGVHRQNSNHATRHEILSKLVEEGVQRFCSPYQASANKYCNDKFPGTIARRSKGFGNNVEVAWRCYEKASLLYSVYAECASNCGTTWYCPGGRRGTSTELDKRHYTEEEGIRQAIGSVDSPCSEVEVCLPKDENPPLCLDESGQISRTGGGPPSQPPEMQQPADRSDERGGGKEQSPGGEAQPDHPTKGGNIDLPEKSTSPEKTPKTEIHGDSTKATLEEGQQLTLTFISTKLDVAVGSCHSLVANFLDGFLKFQTGSNSAFDVVEVEEPAGPAVLTIGLGHKGRLAVVLDYTRLNAALGSAAYVVEDSGCSSSEEVSFQGVGSGATLVVTTLGESPTAVSA
- glycan array binding signal (z-score) [1]: 0.021
- glycan array binding signal (z-score) [2]: -0.262
- glycan array binding signal (z-score) [3]: -0.131
- glycan array binding signal (z-score) [4]: -0.343
- glycan array binding signal (z-score) [5]: -0.232
- glycan array binding signal (z-score) [6]: -0.21
- glycan array binding signal (z-score) [7]: -0.18
- glycan array binding signal (z-score) [8]: -0.128
- glycan array binding signal (z-score) [9]: 0.115
- glycan array binding signal (z-score) [10]: -0.003
- glycan array binding signal (z-score) [11]: -0.153
- glycan array binding signal (z-score) [12]: -0.354
- glycan array binding signal (z-score) [13]: -0.17
- glycan array binding signal (z-score) [14]: -0.252
- glycan array binding signal (z-score) [15]: -0.213
- glycan array binding signal (z-score) [16]: -0.138
- glycan array binding signal (z-score) [17]: -0.073
- glycan array binding signal (z-score) [18]: -0.192
- glycan array binding signal (z-score) [19]: -0.305
- glycan array binding signal (z-score) [20]: -0.293
- glycan array binding signal (z-score) [21]: -0.126
- glycan array binding signal (z-score) [22]: -0.156
- glycan array binding signal (z-score) [23]: -0.15
- glycan array binding signal (z-score) [24]: -0.245
- glycan array binding signal (z-score) [25]: -0.18
- glycan array binding signal (z-score) [26]: -0.163
- glycan array binding signal (z-score) [27]: 0.038
- glycan array binding signal (z-score) [28]: -0.144
- glycan array binding signal (z-score) [29]: -0.164
- glycan array binding signal (z-score) [30]: -0.191
- glycan array binding signal (z-score) [31]: -0.217
- glycan array binding signal (z-score) [32]: -0.127
- glycan array binding signal (z-score) [33]: 0.267
- glycan array binding signal (z-score) [34]: -0.037
- glycan array binding signal (z-score) [35]: -0.212
- glycan array binding signal (z-score) [36]: -0.257
- glycan array binding signal (z-score) [37]: -0.139
- glycan array binding signal (z-score) [38]: 0.029
- glycan array binding signal (z-score) [39]: 0.001
- glycan array binding signal (z-score) [40]: -0.213
- glycan array binding signal (z-score) [41]: -0.299
- glycan array binding signal (z-score) [42]: -0.221
- glycan array binding signal (z-score) [43]: -0.267
- glycan array binding signal (z-score) [44]: -0.041
- glycan array binding signal (z-score) [45]: -0.233
- glycan array binding signal (z-score) [46]: -0.242
- glycan array binding signal (z-score) [47]: -0.218
- glycan array binding signal (z-score) [48]: -0.217
- glycan array binding signal (z-score) [49]: -0.026
- glycan array binding signal (z-score) [50]: -0.233
- glycan array binding signal (z-score) [51]: -0.059
- glycan array binding signal (z-score) [52]: 0.073
- glycan array binding signal (z-score) [53]: -0.241
- glycan array binding signal (z-score) [54]: -0.014
- glycan array binding signal (z-score) [55]: -0.139
- glycan array binding signal (z-score) [56]: 0.113
- glycan array binding signal (z-score) [57]: -0.07
- glycan array binding signal (z-score) [58]: -0.115
- glycan array binding signal (z-score) [59]: -0.126
- glycan array binding signal (z-score) [60]: -0.151
